According to ChEMBL document CHEMBL4888484, “Replenishing the malaria drug discovery pipeline: Screening and hit evaluation of the MMV Hit Generation Library 1 (HGL1) against asexual blood stage Plasmodium falciparum ,using a nano luciferase reporter read-out” (2022):
Values joined by “and” are separate entries in the source; they are usually repeats but may differ in a detail not shown here. Identical values can stand only once. Among all 150,000 compounds or so, about 540 (0.36%) showed an effect of 50% or more. The list shows a part of the results.

Test system: Plasmodium falciparum
Assay: Primary screen in NF54 nanoGlo assay, in single point, at 2uM, 72h; a lower Z score goes with more inhibition
Type: functional, Erythrocyte
Conditions: timepoint 72 hour

Row | SMILES | % Inhibition [%] | Z score | % Inhibition (2 µM)
1 | CCc1nc(C2CC2)nc(N2CCN(S(C)(=O)=O)CC2)c1Cc1cc(C)ccc1C | 7 | -1.26 | 
2 | C1=C(CCNC2=NCCCCC2)CCCC1 | -1 | 0.14 | 
3 | O=C(c1ccc(-n2ccc3ccccc32)s1)N1CCN(c2ccc(F)cc2)CC1 | -11 | 1.42 | 
4 | Cc1ccccc1CC(=O)N1CCC2(CC1)C[C@@H](O)CCO2 | -12 | 1.73 | 
5 | CCc1ccc(-c2nccn2-c2ccc3[nH]c(CO)nc3c2)nc1 | -11 | 1.44 | 
6 | Cc1cc(CN(C)Cc2cc(C)on2)no1 | -7 | 1.11 | 
7 | O=C1CN(C(=O)N[C@@H](Cc2ccccc2)C(=O)Nc2cccc(F)c2)c2ccccc2N1 |  |  | 8% and -4%
8 | CCc1nc(C)c(CN2CCC([C@](C)(O)C(F)(F)F)CC2)o1 | -5 | 0.97 | 
9 | CN1C(=O)C(=O)N(CC(=O)NCCc2ccccc2)C1=O | 5 | -0.87 | 
10 | COc1c(C)cnc(CN2CCC(N(C)CCc3cccnc3)CC2)c1C | -10 | 0.86 | 
11 | Cc1cc(C)n2ncc(-c3noc(-c4cccc5cn[nH]c45)n3)c2n1 | -8 | 0.85 | 
12 | CN1CC(C)(O)C(=O)CC1/C=C/c1ccccc1 (configuration not stated) | 0 | 0.06 | 
13 | CCc1ncc(CN(C)CCc2nc(-c3ccccc3)no2)s1 | -4 | 0.34 | 
14 | COc1ccc(NC(=O)Cn2c(C)cc(C)c(-c3nc(-c4ccc5c(c4)OCO5)no3)c2=O)c(OC)c1 | -7 | 0.93 | 
15 | Cc1c(Cl)cccc1-c1nc(-c2ncccn2)no1 | -2 | 0.19 | 
16 | CC(C)Cn1cncc1CNc1nc(N)nc2c1CCCC2 | 1 | -0.17 | 
17 | CN(C)c1nc(N(C)CCn2cccn2)ncc1F | -19 | 2.99 | 
18 | Cc1ncc(C)c(NCc2cccnc2Oc2ccc(F)cc2F)n1 | -3 | 0.32 | 
19 | CCN1CCN(C(=O)CCC2CCN([C@@H](C)CCc3ccc(O)cc3)CC2)CC1 | -16 | 2.22 | 
20 | Cc1cc(O)cc(=O)n1CCCC(=O)Nc1ccc(N2CCOCC2)cc1 | -3 | 0.42 | 
21 | O=C(Cc1ccc(Cl)cc1)Nc1ccc(C(=O)N2CCCCC2)cc1 | -20 | 3.72 | 
22 | Cc1nc2n(c(=O)c1C)CCN2CCN1CCOCC1 | 2 | -0.41 | 
23 | O=C(NCc1nc(C2CCOCC2)no1)c1ccno1 | -14 | 1.83 | 
24 | Cc1cc(C)n(CC(=O)NC2CCCCCCC2)n1 | 1 | -0.09 | 
25 | O=C(NCc1nc(C2CC2)no1)c1ccco1 | -17 | 1.96 | 
26 | CCc1cnc(N)nc1N1CCC(CCC(=O)NC2CC2)CC1 | -7 | 0.75 | 
27 | C[C@H]1Cc2cc(CNC(=O)Nc3ccnc(CN(C)C)c3)ccc2O1 | -1 | 0.19 | 

Row | SMILES | % Inhibition [%] | Z score | % Inhibition (2 µM)
28 | Cc1cc(Br)ccc1NC(=O)C1CCN(c2cc(=O)n(C)c(=O)n2C)CC1 | 1 | -0.14 | 
29 | O=C(NCC1([C@H](O)c2ccccc2)CC1)Nc1ccc2cc[nH]c2c1 | 8 | -0.98 | 
30 | CC(C)[C@@H]1N(C(=O)c2c[nH]c(C3CC3)n2)CC12CCCC2 | -2 | 0.25 | 
31 | COc1nc(N[C@@H](C)c2ccccn2)nc(N2CCCCCC2)n1 | -4 | 0.65 | 
32 | Cn1cc(C(=O)NCC2(OCCO)CCCC2)nn1 | -7 | 0.77 | 
33 | CCOCC(=O)N1CCC(=C2CCC2)CC1 | -12 | 1.79 | 
34 | O=C(NCCc1ccc(=O)[nH]c1)c1ccc(O[C@H]2CC2(F)F)cc1 | 1 | -0.15 | 
35 | Cn1nc(N2CCC[C@H](C(=O)Nc3cc(C(F)(F)F)ccc3Cl)C2)ccc1=O | -11 | 2.11 | 
36 | COCCOC1CN(C(=O)Nc2ccc(C)nc2C)C1 | -9 | 0.87 | 
37 | Cc1nc2c(C(=O)NC(Cc3ccccn3)[C@H]3C[C@@H](O)C3)cccc2[nH]1 (some centres not stated) | -12 | 2.29 | 
38 | Cc1nn(-c2ccc(C(F)(F)F)cc2)c(C)c1[C@@H]1C=C[C@@H](NC(=O)NC(C)C)C1 | 33 | -3.76 | 
39 | O=C(CN1C(=O)c2cc(Cl)c(Cl)cc2C1=O)NCCOc1ccccc1 | -4 | 0.55 | 
40 | O=C(Cn1cnc(-c2ccccc2)n1)Nc1cccc(-c2cn[nH]c2)c1 | -5 | 0.67 | 
41 | CCN1CCN(C2(C(=O)N(C)CC3CCOCC3)Cc3ccccc3C2)CC1 | -19 | 1.66 | 
42 | COC(=O)c1cc(=O)c2ccccc2n1Cc1ccccc1F | 6 | -0.73 | 
43 | CO[C@@H]1C[C@H](COc2cccnc2)N(S(=O)(=O)CC(C)C)C1 | -4 | 0.48 | 
44 | CCn1nc(C)c(Cn2cc(-c3ccc(F)c(Cl)c3)nn2)c1C | -17 | 2.38 | 
45 | CC1(C)C(=O)c2ccccc2N1C(=O)CCS(C)(=O)=O | 0 | 0.02 | 
46 | COc1ccc(CN2CCNC(=O)[C@@H]2CC(=O)NCCc2cccnc2)c(F)c1 | 8 | -0.87 | 
47 | CCOC(=O)[C@H]1CCCN1S(=O)(=O)C1CC1 | 20 | -2.54 | 
48 | Cn1cc(-c2nn(C)cc2C(=O)Nc2ccc(F)c(C3CC3)c2)cn1 | -1 | 0.11 | 
49 | CS(=O)(=O)c1cccc(-c2nnc(NC(=O)c3ccc4c(c3)OCCO4)o2)c1 | -16 | 2.83 | 
50 | Cc1cc([C@]2(C)NC(=O)N(CC(=O)Nc3ccccc3Cl)C2=O)c(C)o1 | -4 | 0.65 | 
51 | CS(=O)(=O)c1cccc(-c2nnc(-c3ccc4c(c3)CCO4)o2)c1 | -15 | 3.03 | 
52 | O=C(N[C@H]1CC12CCN(C(=O)CC1CCCC1)CC2)c1ccccc1 | -4 | 0.5 | 
53 | CC(=O)N1CC2(CCN(CCCc3ccccc3)CC2)C[C@H]1C(=O)O | 4 | -0.84 | 
54 | CCc1nc(CCn2cc(-c3ccc(-c4cc[nH]n4)o3)nn2)no1 | -6 | 1.16 | 
